Measurements from PubChem BioAssay AID1508642 (National Center for Advancing Translational Sciences (NCATS), 2021).
Screen size: about 43,000 compounds; about 200 (0.47%) were called active. This list was built around the results that the source calls inconclusive (neither active nor inactive); the mix of calls is not that of the screen. The call rests on the fitted dose curve; in most records, active means well fitted cell-killing curve with a large enough effect; inconclusive means small, poorly fitted or top-dose-only effect, or effect the other way; inactive means flat fitted curve, though single readings scatter. Where the call is inconclusive, the potency comes from a doubtful curve fit.
Potency means the concentration at half of the fitted maximal effect; tags describe the fitted curve by direction and shape.

Experiment: Cell viability qHTS assay in S16 Pmp22-F2sN cells; further: nearly all actives have a fitted effect of over 65% in size
Settings: S16 Pmp22-F2sN Schwann cells viability, CellTiter-Glo, 24 h; series mostly up to 57.5 µM
Procedure, shortened: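 Viability was measured by CellTiter-Glo luminescence (15 min, room temperature). This followed 24 h at 37 °C of compound exposure (23 nL pin transfer) in S16 Pmp22-F2sN Schwann cells, 500-1,000 per well.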
For CC(=O)N1CCc2cc(Br)cc(S(=O)(=O)N3CCN(c4cccc(C(F)(F)F)c4)CC3)c21, the Potency was inconclusive: 3.16 µM [rising, partial curve, poor fit]. For COc1ccccc1CNC(=O)C1CCCN(c2nc3ccccc3n3cccc23)C1 (stereo not drawn), the Potency was inconclusive: 28.2 µM [cytotoxic, single point]. In the case of Cc1ccc(Nc2c(-c3c[nH]c4ccccc34)nc3cc(C)ccn23)cc1, the Potency is reported as inconclusive: 39.8 µM [cytotoxic, single point]. For COc1cc(OC)c(OC)cc1/C=C/c1nc2cc3ccccc3cc2c(=O)n1-c1ccc(Cl)cc1, the Potency was inconclusive: 35.5 µM [cytotoxic, single point]. For CCC(C(=O)Nc1cc(Cl)ccc1OC)n1nc(-c2ccccc2)ccc1=O (stereo not drawn), the Potency was inconclusive: 35.5 µM [cytotoxic, single point]. For COc1ccc(OC)c(NC(=O)c2noc3c2CCCC3)c1, the Potency was “inactive”. In the case of CCCCN(C)CCCNC(=O)C1CCN(c2nc3ccc(CC)cc3s2)CC1, the Potency is reported as inconclusive: 39.8 µM [cytotoxic, single point]. In the case of COC(=O)c1c(-c2ccc(Cl)cc2)noc1N1CCN(c2ccc(C)cc2C)CC1, the Potency is reported as inconclusive: 39.8 µM [cytotoxic, single point]. In the case of CC(=O)c1ccc(NC(=O)CCSc2nc(-c3ccco3)cc(C(F)(F)F)n2)cc1, the Potency is reported as inconclusive: 8.91 µM [cytotoxic, partial curve, poor fit]. For Cc1ccc(C(=O)NC2(C(F)(F)F)C(=O)Nc3c2c(=O)[nH]c(=O)n3CCc2ccccc2)cc1 (stereo not drawn), the Potency was inconclusive: 3.55 µM [rising, partial curve, poor fit]. With O=C(Cn1c(=O)n(Cc2ccc3c(c2)OCO3)c(=O)c2ccc(C(=O)NC3CCCCC3)cc21)Nc1ccccc1F the Potency was “inactive”. With CCc1ccc(NC(=O)CSc2nc(=O)n(Cc3ccco3)c3c2CCC3)cc1 the Potency was “inactive”. In the case of Cc1cc(C)c(C(=O)Nc2ccccc2)c(SCC(=O)Nc2ccc(Br)cc2C)n1, the Potency is reported as inconclusive: 31.6 µM [cytotoxic, single point]. With COc1cccc(-c2nnc3n(Cc4ccccc4Cl)c(=O)c4ccccc4n23)c1O the Potency was inconclusive: 14.1 µM [cytotoxic, partial curve]. With O=C(NCCCN1CCCCC1)c1cc(Sc2ccc(Cl)cc2)nc2ccccc12 the Potency was inconclusive: 20 µM [cytotoxic, partial curve]. In the case of Cc1ccc(NC(=O)Cc2ccc(NC(=O)N3CCCCc4ccccc43)cc2)cc1, the Potency is reported as inconclusive: 28.2 µM [cytotoxic, partial curve]. With Cc1nc2ccccc2n1CCc1nc2c3ccccc3nc(SCC(=O)Nc3ccc(C(C)C)cc3)n2n1 the Potency was inconclusive: 31.6 µM [cytotoxic, single point]. With Cc1ccc(NC(=O)CSc2[nH]c(=O)ncc2C)cc1 the Potency was “inactive”. In the case of CCN1CCN(C(c2ccccc2)c2c(O)cc(C)n(CCOC)c2=O)CC1 (stereo not drawn), the Potency is reported as inconclusive: 3.55 µM [rising, partial curve, poor fit]. In the case of Cc1cc(Cl)ccc1NC(=O)CN1C(=O)C(=O)c2ccccc21, the Potency is reported as inconclusive: 28.2 µM [cytotoxic, partial curve, poor fit]. For CCc1ccc(S(=O)(=O)c2nnn3c2nc(N2CCCC(C)C2)c2cc(Cl)ccc23)cc1 (stereo not drawn), the Potency was inconclusive: 8.91 µM [cytotoxic, full curve]. In the case of COc1ccc(N2CCN(C(=O)CCn3cnc4onc(-c5ccc(F)cc5)c4c3=O)CC2)cc1, the Potency is reported as inconclusive: 25.1 µM [cytotoxic, single point]. With CCCNC(=O)CCC(=O)N1Cc2ccccc2Oc2ncccc21 the Potency was “inactive”. In the case of COc1ccc(CCN2C(=O)N(c3ccc(F)cc3)C(=O)C2CC(=O)Nc2ccc(F)c(F)c2)cc1 (stereo not drawn), the Potency is reported as inconclusive: 39.8 µM [cytotoxic, partial curve, poor fit]. In the case of CCCCn1c(-c2ccc(C)cc2)c(C)n2c3c(=O)n(C)c(=O)n(C)c3nc12, the Potency is reported as inconclusive: 39.8 µM [cytotoxic, single point]. With Cc1ccccc1-c1noc(CSc2nnc(-c3ccncc3)n2-c2ccc(F)cc2)n1 the Potency was inconclusive: 25.1 µM [cytotoxic, partial curve, poor fit]. For Cc1oc(-c2ccc(C(=O)NCc3ccccc3)cc2)nc1CS(=O)(=O)c1ccccc1, the Potency was inconclusive: 39.8 µM [cytotoxic, single point]. For COc1cccc(-c2nn(C)c3sc(C(=O)N4CCN(c5cccc(C)c5)C(C)C4)cc23)c1 (stereo not drawn), the Potency was inconclusive: 35.5 µM [cytotoxic, single point]. With Cc1c(Cl)cccc1NC(=O)Cn1nc(C)c2sc3ccccc3c2c1=O the Potency was inconclusive: 39.8 µM [cytotoxic, single point]. In the case of Cc1ccc(S(=O)(=O)CCC(=O)N2CCN(c3nc4c(C)c(Cl)ccc4s3)CC2)cc1, the Potency is reported as inconclusive: 10 µM [cytotoxic, partial curve]. In the case of CCCCOC(=O)c1ccc(NC(=O)Cc2coc3ccc(C(C)C)cc23)cc1, the Potency is reported as inconclusive: 15.8 µM [cytotoxic, partial curve, poor fit]. With Cn1c(Oc2ccc(F)cc2)nc2c1c(=O)n(Cc1ccccc1Cl)c(=O)n2C the Potency was inconclusive: 39.8 µM [cytotoxic, single point]. With Cc1cc(N2CCC(C)CC2)nc2ccc(NC(=O)/C=C/c3cccc(Cl)c3)cc12 the Potency was inconclusive: 12.6 µM [rising, partial curve, poor fit]. In the case of Cc1ccc(Cl)cc1N1CCN(CCNC(=O)Nc2ccc(Cl)cc2)CC1, the Potency is reported as inconclusive: 39.8 µM [cytotoxic, single point]. For COc1ccc(-c2nn(C)c3sc(C(=O)Nc4cccc(F)c4)cc23)cc1OC, the Potency was active: 14.1 µM. In the case of CCOc1ccc(-c2nc(SC(C(C)=O)C(=O)N(C)C)c3c(=O)n(C)c(=O)n(C)c3n2)cc1 (stereo not drawn), the Potency is reported as inconclusive: 6.31 µM [cytotoxic, single point]. In the case of CCN(CC)S(=O)(=O)c1ccc2c(c1)N(CC(=O)N1CCN(c3cccc(C(F)(F)F)c3)CC1)C(=O)CO2, the Potency is reported as inconclusive: 39.8 µM [cytotoxic, single point]. For COCCn1c(SCC(=O)c2cc(C)ccc2C)nc2cc(C(=O)NC3CCCC3)ccc2c1=O, the Potency was inconclusive: 7.08 µM [cytotoxic, full curve, poor fit]. In the case of CCN(CC)CCN(C(=O)c1ccco1)c1nc2ccc(Cl)cc2s1, the Potency is reported as inconclusive: 22.4 µM [cytotoxic, single point]. For Cc1cc(C)c2c(CC(=O)N(Cc3ccc(N(C)C)cc3)Cc3ccco3)coc2c1, the Potency was inconclusive: 39.8 µM [cytotoxic, single point]. In the case of Cc1ccccc1OCc1ccc(-c2nc(C#N)c(NCCCN(C)C)o2)o1, the Potency is reported as inconclusive: 39.8 µM [cytotoxic, single point]. In the case of CCc1nn(CCCC(=O)NCc2ccccc2Br)c(=O)c2cc3occc3n12, the Potency is reported as inconclusive: 12.6 µM [rising, partial curve, poor fit]. With CC1CCN(S(=O)(=O)c2ccc3c(c2)N(CC(=O)NC(C)C)C(=O)CS3)CC1 the Potency was “inactive”. With Cc1ccc(OCC(=O)NCC2(N3CCN(C)CC3)CCCCC2)cc1C the Potency was “inactive”. With COc1ccc(OC)c(NC(=O)CSc2c3c(nc4ccccc24)CCCC3)c1 the Potency was inconclusive: 39.8 µM [cytotoxic, single point]. For CSc1ccc(CCNC(=O)C2CCN(c3nc4ccccc4nc3C(F)(F)F)CC2)cc1, the Potency was inconclusive: 28.2 µM [rising, partial curve, poor fit]. With COC(=O)c1ccc(NC(=O)c2c(NCc3ccc(C)o3)sc3c2CCCC3)cc1 the Potency was inconclusive: 39.8 µM [cytotoxic, single point]. For COc1cc(NC(=O)CCS(=O)(=O)c2nc(-c3cccs3)cc(C(F)(F)F)n2)cc(OC)c1OC, the Potency was inconclusive: 31.6 µM [cytotoxic, single point]. In the case of CC(CNC(=O)C1CCN(Cc2cc3ccccc3n2Cc2ccccc2)CC1)c1ccccc1 (stereo not drawn), the Potency is reported as inconclusive: 35.5 µM [cytotoxic, single point]. For CCOc1cc(CNCCSc2nnnn2-c2ccccc2)cc(Cl)c1OC, the Potency was inconclusive: 39.8 µM [cytotoxic, single point]. In the case of O=C(CN1C(=O)C2(SCC(=O)N2c2ccccc2)c2ccccc21)NCc1ccccc1Cl (stereo not drawn), the Potency is reported as “inactive”. With Cc1ccc2nc(-c3ccc(NC(=O)COc4c(C)ccc(C)c4C)cc3)sc2c1 the Potency was inconclusive: 39.8 µM [cytotoxic, single point]. In the case of CCN(C(=O)C1CCN(S(=O)(=O)c2ccc3c(c2)CCCN3C(=O)C2CCC2)CC1)c1cccc(C)c1, the Potency is reported as inconclusive: 14.1 µM [cytotoxic, partial curve]. With Cc1cc(C)cc(NC(=O)Cn2c(=O)oc3cc(S(=O)(=O)N4CCCC4)ccc32)c1 the Potency was “inactive”. For O=C(CSc1cn(CC(=O)N2CCCCCC2)c2ccccc12)Nc1ccccc1F, the Potency was inconclusive: 39.8 µM [cytotoxic, single point]. With Cc1ccc(Cl)cc1NC(=O)CN(C)S(=O)(=O)c1ccc2c(c1)n(C)c(=O)c(=O)n2C the Potency was inconclusive: 44.7 µM [cytotoxic, partial curve, poor fit]. In the case of Cc1ccc(C)c(NC(=O)C2CCCN(S(=O)(=O)c3ccc4[nH]c(=O)ccc4c3)C2)c1 (stereo not drawn), the Potency is reported as inconclusive: 39.8 µM [cytotoxic, single point]. With CCc1ccc(OC(C)C(=O)Nc2c(C(=O)c3ccccc3)oc3ccccc23)cc1 (stereo not drawn) the Potency was inconclusive: 11.2 µM [rising, partial curve, poor fit]. In the case of Cc1ccc(CCNC(=O)C2CCN(Cc3nc(-c4ccccc4C)oc3C)CC2)cc1, the Potency is reported as inconclusive: 39.8 µM [cytotoxic, single point]. With Cc1cc(S(=O)(=O)C(CNC(=O)COc2ccc(Cl)cc2)c2cccs2)ccc1F (stereo not drawn) the Potency was inconclusive: 0.562 µM [rising, full curve, poor fit]. With O=C(CSCc1cc(=O)c2cc(F)ccc2[nH]1)Nc1ccccc1Cl the Potency was inconclusive: 28.2 µM [cytotoxic, partial curve, poor fit]. In the case of CC(C)(C)OC(=O)N1CCC(c2c(C(=O)NCCN3CCC(Cc4ccccc4)CC3)cnn2-c2ccc(F)cc2)CC1, the Potency is reported as inconclusive: 39.8 µM [cytotoxic, single point]. For COc1ccc(CCNC(=O)C(=O)NCC(c2ccco2)S(=O)(=O)c2ccc(F)cc2)cc1 (stereo not drawn), the Potency was inconclusive: 17.8 µM [cytotoxic, partial curve]. With Cn1ccc2c(OCC(=O)Nc3cc(C(F)(F)F)ccc3Cl)cccc2c1=O the Potency was inconclusive: 25.1 µM [cytotoxic, single point]. For COc1cc(C2CC(=O)Nc3cc4c(cc32)OCCO4)cc(Br)c1OC (stereo not drawn), the Potency was inconclusive: 0.398 µM [cytotoxic, full curve, poor fit]. In the case of CCCCNc1nc2c(c(=O)n(Cc3ccc(Cl)cc3)c(=O)n2C)n1C, the Potency is reported as inconclusive: 39.8 µM [cytotoxic, single point]. For COc1ccc(CN2CCN(Cc3cc(=O)oc4cc(C)ccc34)CC2)c(OC)c1OC, the Potency was inconclusive: 39.8 µM [cytotoxic, partial curve, poor fit]. In the case of COc1ccc(C(CNC(=O)c2oc3ccc(Cl)cc3c2C)N2CCCCC2)cc1 (stereo not drawn), the Potency is reported as inconclusive: 39.8 µM [cytotoxic, single point]. For CCN(CC)CCNC(=O)c1ccc(Cn2c(SCc3ccccc3)nc3cccnc32)cc1, the Potency was inconclusive: 28.2 µM [cytotoxic, single point]. In the case of CCc1nc2ccccc2n1CCCCOc1ccc(C)cc1, the Potency is reported as inconclusive: 25.1 µM [cytotoxic, single point]. For Cc1ccc(C)c(N2CCN(C(=O)C3CCCN(S(=O)(=O)c4ccc5c(c4)oc(=O)n5C)C3)CC2)c1 (stereo not drawn), the Potency was “inactive”. With Cc1cc(C)c2c(=O)cc(CSCC(=O)Nc3ccccc3Cl)[nH]c2c1 the Potency was inconclusive: 4.47 µM [rising, full curve, poor fit]. For COc1cc(NC(=O)CN(c2ccc(C)cc2)S(=O)(=O)c2cccc3nonc23)cc(OC)c1, the Potency was inconclusive: 28.2 µM [cytotoxic, partial curve, poor fit].
